For one assay, the target named is T1, Myc-TRBP1ΔC4 (human) (UniProt Q15633).
T1 sequence: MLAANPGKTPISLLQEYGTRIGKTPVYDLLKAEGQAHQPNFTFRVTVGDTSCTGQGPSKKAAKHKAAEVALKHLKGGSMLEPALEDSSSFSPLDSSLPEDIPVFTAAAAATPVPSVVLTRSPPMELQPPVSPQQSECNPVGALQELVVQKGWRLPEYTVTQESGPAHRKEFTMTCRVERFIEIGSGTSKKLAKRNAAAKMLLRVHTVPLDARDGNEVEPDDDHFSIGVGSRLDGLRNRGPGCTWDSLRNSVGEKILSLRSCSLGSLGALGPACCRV
Briefly: co-IP; 1 mg extract of transfected tarbp2-/- cells; IP with anti-Myc on protein G sepharose, overnight at 4°C; blot with anti-Dicer.

By UniProt entry, the sequences of proteins in these tests, tags left out.
UniProt Q8R418: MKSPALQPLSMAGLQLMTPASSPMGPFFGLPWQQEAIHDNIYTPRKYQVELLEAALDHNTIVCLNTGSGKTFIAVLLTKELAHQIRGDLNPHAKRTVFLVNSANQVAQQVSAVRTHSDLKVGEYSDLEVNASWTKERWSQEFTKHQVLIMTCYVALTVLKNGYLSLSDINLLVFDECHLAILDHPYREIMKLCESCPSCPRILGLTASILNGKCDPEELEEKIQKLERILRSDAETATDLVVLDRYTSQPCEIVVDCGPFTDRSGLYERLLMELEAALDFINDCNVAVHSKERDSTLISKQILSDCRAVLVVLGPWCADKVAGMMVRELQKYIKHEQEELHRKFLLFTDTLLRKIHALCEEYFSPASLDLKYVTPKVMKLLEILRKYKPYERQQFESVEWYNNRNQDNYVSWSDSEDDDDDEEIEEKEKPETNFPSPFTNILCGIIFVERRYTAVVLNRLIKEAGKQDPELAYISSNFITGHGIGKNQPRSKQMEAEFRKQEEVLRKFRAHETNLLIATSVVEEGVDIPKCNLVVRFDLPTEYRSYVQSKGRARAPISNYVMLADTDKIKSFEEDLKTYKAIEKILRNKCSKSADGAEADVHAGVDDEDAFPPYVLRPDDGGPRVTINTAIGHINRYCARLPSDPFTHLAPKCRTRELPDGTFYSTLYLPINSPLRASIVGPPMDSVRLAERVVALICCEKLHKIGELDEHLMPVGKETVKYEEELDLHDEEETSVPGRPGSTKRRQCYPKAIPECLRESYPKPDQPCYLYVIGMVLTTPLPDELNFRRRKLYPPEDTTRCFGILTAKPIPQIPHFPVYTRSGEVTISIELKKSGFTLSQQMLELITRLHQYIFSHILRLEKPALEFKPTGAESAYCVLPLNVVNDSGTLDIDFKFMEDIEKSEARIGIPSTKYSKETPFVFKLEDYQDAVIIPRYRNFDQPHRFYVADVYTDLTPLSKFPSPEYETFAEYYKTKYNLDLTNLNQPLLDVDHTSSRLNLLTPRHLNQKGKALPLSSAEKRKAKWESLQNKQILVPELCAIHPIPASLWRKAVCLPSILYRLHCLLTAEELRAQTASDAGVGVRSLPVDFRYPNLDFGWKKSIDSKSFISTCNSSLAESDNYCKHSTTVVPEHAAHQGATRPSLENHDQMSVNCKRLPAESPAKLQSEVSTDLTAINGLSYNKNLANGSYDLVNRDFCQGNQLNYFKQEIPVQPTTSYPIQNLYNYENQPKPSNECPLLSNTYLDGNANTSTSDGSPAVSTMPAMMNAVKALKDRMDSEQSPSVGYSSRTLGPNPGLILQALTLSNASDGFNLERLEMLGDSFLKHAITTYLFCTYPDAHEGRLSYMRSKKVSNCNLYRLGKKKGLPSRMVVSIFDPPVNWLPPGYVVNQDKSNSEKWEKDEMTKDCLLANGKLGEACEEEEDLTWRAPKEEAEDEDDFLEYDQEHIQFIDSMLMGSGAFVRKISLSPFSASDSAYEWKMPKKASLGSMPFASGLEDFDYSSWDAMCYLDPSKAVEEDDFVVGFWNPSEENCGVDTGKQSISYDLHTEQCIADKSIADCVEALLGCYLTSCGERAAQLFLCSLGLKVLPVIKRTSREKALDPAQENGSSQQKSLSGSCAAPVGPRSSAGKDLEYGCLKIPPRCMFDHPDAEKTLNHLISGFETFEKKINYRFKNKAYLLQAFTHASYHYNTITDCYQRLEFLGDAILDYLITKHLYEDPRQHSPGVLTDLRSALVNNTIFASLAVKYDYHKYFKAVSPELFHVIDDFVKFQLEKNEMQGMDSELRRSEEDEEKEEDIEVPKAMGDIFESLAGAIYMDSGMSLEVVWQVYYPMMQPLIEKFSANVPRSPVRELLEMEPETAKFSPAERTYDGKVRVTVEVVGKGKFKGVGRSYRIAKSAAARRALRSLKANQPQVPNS

Another assay addresses T2, Myc-TRBP1 (human) (UniProt Q15633).
T2 sequence: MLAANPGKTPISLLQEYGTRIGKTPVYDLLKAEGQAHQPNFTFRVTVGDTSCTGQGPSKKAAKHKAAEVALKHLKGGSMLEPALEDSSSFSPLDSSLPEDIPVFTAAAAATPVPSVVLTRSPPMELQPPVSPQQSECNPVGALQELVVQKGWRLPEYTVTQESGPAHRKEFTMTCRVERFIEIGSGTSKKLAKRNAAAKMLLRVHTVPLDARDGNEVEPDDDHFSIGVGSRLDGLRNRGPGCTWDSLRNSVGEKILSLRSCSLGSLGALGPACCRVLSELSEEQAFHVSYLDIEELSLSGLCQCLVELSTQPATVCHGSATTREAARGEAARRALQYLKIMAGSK
The description is as above.

Another assay concerns the target T3, Myc-TRBP2ΔC4 (human) (UniProt Q15633).
T3 sequence: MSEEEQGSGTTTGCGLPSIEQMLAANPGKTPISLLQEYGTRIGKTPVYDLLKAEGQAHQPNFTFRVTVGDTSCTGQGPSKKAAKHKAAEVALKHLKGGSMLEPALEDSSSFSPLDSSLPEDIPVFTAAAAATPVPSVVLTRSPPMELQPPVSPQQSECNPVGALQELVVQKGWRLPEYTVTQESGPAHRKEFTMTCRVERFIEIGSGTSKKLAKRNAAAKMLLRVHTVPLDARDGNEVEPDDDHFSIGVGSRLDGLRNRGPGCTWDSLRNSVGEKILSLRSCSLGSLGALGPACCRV
The description is as above.

A further assay concerns the target T4, Myc-TRBP2 (human) (UniProt Q15633).
T4 sequence: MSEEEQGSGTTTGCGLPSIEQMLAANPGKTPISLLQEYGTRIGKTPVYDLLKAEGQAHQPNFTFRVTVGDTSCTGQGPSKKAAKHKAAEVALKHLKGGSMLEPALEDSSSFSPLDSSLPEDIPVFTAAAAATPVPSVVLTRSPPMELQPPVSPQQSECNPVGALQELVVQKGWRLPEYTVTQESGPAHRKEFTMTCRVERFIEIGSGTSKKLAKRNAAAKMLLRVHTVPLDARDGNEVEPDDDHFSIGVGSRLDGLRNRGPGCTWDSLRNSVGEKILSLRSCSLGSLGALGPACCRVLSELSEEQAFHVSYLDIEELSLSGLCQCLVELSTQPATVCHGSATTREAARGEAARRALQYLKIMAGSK
The description is as above.

The target of assay [1] is endogenous Dicer of murine tarbp2-/- cells (mouse (endogenous in tarbp2-/- tail embryonic fibroblasts)) (UniProt Q8R418). Kind of assay: co-IP; 1 mg extract of transfected tarbp2-/- cells; IP with monoclonal anti-Dicer 73 on protein G sepharose, overnight at 4°C; blot with anti-Myc (and anti-TRBP 672).

These are yes or no findings as the source states them, for the method shown. Binding seen in cells or lysates may run through a third protein. Some entries that bind do so weakly or less than the wild type. Tags and fused reporters may be left off the sequences shown.

On to “endogenous Dicer of murine tarbp2-/- cells (from UniProt Q8R418 1-1916)”, for which the binding result in the assay with Myc-TRBP1ΔC4 (human) was “no binding”; with Myc-TRBP1 (human) it was “binds”; with Myc-TRBP2ΔC4 (human), “no binding”; with Myc-TRBP2 (human) it was “binds”.

B1: Myc-TRBP2ΔC4 (domain or fragment, UniProt Q15633 1-297)
chain: T3 sequence
For B1, in assay [1], the binding entry is “no binding”.

B2: Myc-TRBP2 (protein, UniProt Q15633-1 1-366)
chain: T4 sequence
Take B2: the binding entry in assay [1] was “binds”.

B3: Myc-TRBP1 (protein, UniProt Q15633-2 1-345)
chain: T2 sequence
As for B3, the binding result in assay [1] was “binds”.

B4: Myc-TRBP1ΔC4 (domain or fragment, UniProt Q15633-2 1-276)
chain: T1 sequence
As for B4, in assay [1], the binding entry is given as “no binding”.

These data come from publication PMC2685382.
